Data taken from ChEMBL document CHEMBL1201862, “PubChem BioAssay data set” (2004).
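48-hour exposure; five concentrations; linearly interpolated endpoints. GI50 marks 50% less growth.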 The source made the active and inactive calls. No stated cut-off is given here; in the data, active = GI50 up to about 1.1 µM and inactive = higher.

What follows are compounds tested on NCI-H322M (assay: DTP human tumour cell line panel, 48 h).

| SMILES | GI50 |
| --- | --- |
| C[C@H](CCC(=O)NN)[C@H]1CC[C@H]2[C@@H]3CC[C@@H]4C[C@H](O)CC[C@]4(C)[C@H]3CC[C@]12C | inactive: > 76.4 µM |
| CC(=O)N1CN2C(=O)CCC2c2cc(C)ccc21 (configuration not stated) | inactive: > 100 µM |
| COC(=O)C(=O)C(C(C)=O)C(=O)NCc1ccccc1 (configuration not stated) | inactive: > 100 µM |
| CCOC(=O)C(=O)Nc1c(C)cccc1C | inactive: > 100 µM |
| FC(F)(F)c1ccc2c(c1)nc(Cc1ccc(Cl)cc1)n2CC1CCCN2CCCCC12 (configuration not stated) | inactive: 12.4 µM |
| COC1OC(CS(=O)(=O)O)C(O)C(O)C1O (configuration not stated) | inactive: > 100 µM |
| N#CC(c1ccccc1)c1nc2ccc(N)cc2[n+]([O-])c1C(C#N)c1ccccc1 (configuration not stated) | inactive: > 100 µM |
| COC(=O)c1c(C(=O)OC)c2ccccn2c1-c1cc(C)cc2c1C(=O)C=CC2=O | inactive: 13.8 µM |
| c1ccc2c(c1)cc1c3[nH]c4ccccc4c3ccn21 | inactive: > 10 µM |
| COC(=O)C1=C(C(=O)OC)C23C=CC=CC24C(C(=O)OC)=C(C(=O)OC)C4C1C3 (configuration not stated) | inactive: > 100 µM |
| COC1=CC2(CC(OC)=C1OC)OC21COc2ccccc2C1=O (configuration not stated) | inactive: 52.7 µM |
| Cc1ccc(S(=O)(=O)c2ccc(C)cc2[N+](=O)[O-])c([N+](=O)[O-])c1 | inactive: > 100 µM |
| CCOC(=O)C(NC(=O)c1ccccc1)(Nc1cc(C)on1)C(F)(F)F (configuration not stated) | inactive: > 100 µM |
| O=C1OC(c2ccccc2)=N/C1=C/NC(CO)C(=O)O (configuration not stated) | inactive: > 100 µM |
| N#C/N=C(\N)NCCO | inactive: > 100 µM |
| CCN(CC)c1ccc2c(c1)N=C1N=CC=CN1C2(c1ccc(N(C)C)cc1)c1ccc(N(C)C)cc1 | inactive: 10.1 µM |
| O=C1CC2CCCC23CC2(CCN13)OCCO2 (configuration not stated) | inactive: > 100 µM |
| COC(=O)Cc1c([C@H]2[C@H](CC(=O)OC)c3ccccc3N2C(C)=O)[nH]c2ccccc12 | inactive: > 100 µM |
| COc1cccc(C=C2N=C(c3ccccc3)N(n3c(-c4ccccc4)nc4ccccc4c3=O)C2=O)c1 | inactive: > 100 µM |
| Cc1cc(-c2ccccc2)cc2[n+]1CC=C2.[O-][Cl+3]([O-])([O-])[O-] | inactive: > 100 µM |
| CC1=NN(c2cccc(Cl)c2)C2(C1=Cc1cccs1)C(Cl)C(=O)N2c1nc2ccccc2s1 (configuration not stated) | inactive: 21.9 µM |
| CCOC(=O)c1cnc2sc3ccc4ccccc4c3n2c1=O | inactive: 58.1 µM |

| SMILES | GI50 |
| --- | --- |
| CCN1/C(=C/C(C)=C/c2sc3ccccc3[n+]2CC)Sc2ccccc21 | active: 0.342 µM |
| CN(N=O)C(=O)Nc1ccc(C(=O)O)cc1 | inactive: > 100 µM |
| O=c1c2sc(=S)n(-c3ccc(F)cc3)c2ncn1/N=C/c1ccc(F)cc1F | inactive: 23.1 µM |
| OC[C@@H](O)[C@H](O)[C@@H](O)/C=N/Nc1ccc(Cl)nn1 | inactive: > 100 µM |
| O=c1[nH]c2ccc(CC(=S)N3CCOCC3)cc2o1 | inactive: > 100 µM |
| COc1nc2c(nc(N)n2C2OC(CO)C(O)C(O)C2O)c(=O)[nH]1 (configuration not stated) | inactive: > 100 µM |
| COc1cccc(NC(=O)c2c(N)n[nH]c2SC)c1 | inactive: > 100 µM |
| COC(=O)C1=CC2OC1(C)CCC2=O (configuration not stated) | inactive: > 100 µM |
| N#CC(C#N)=CSc1ccccc1 | inactive: 59.4 µM |
| Cc1cc(N(CCC#N)CCC#N)ccc1/C=C(\NC(=O)/C=C/c1ccccc1)C(=O)Nc1ccc(Cl)cc1 | inactive: 98.4 µM |
| CCCc1[nH]c(SCCCCCCCCSc2nc(-c3ccc(F)cc3)c(CCC)[nH]2)nc1-c1ccc(F)cc1 | inactive: 26.6 µM |
| COc1cc2c(c(OC)c1OC)-c1ccc(SC)c(=O)cc1[C@@H](NC(=O)c1ccc(OC(C)=O)cc1)CC2 | active: 0.0389 µM |
| CN(C)P(=O)(Oc1ccc(CC(NC(=O)OCc2ccccc2)C(=O)OCc2ccccc2)cc1)N(C)C (configuration not stated) | inactive: 18 µM |
| NCCC(N)C(=O)O (configuration not stated) | inactive: > 100 µM |
| O=C1/C(=C/c2cccc(F)c2)CCCc2ccccc21 | inactive: 19.5 µM |
| COc1ccc(Sc2ccccc2[N+](=O)[O-])cc1 | inactive: 42.1 µM |
| COC1C(O)CC(OC2CC(OC3CC(O[C@@H]4C(=O)c5c(cc6cc(OC7CC(OC8CC(O)C(O)C(C)O8)C(O)C(C)O7)c(C)c(O)c6c5O)C[C@H]4[C@H](OC)C(=O)[C@@H](O)[C@@H](C)O)OC(C)C3O)OC(C)C2O)OC1C (some centres not stated) | active: < 0.0135 µM |
| CC#CCC1CCC(OCC)=CC1=O (configuration not stated) | inactive: > 100 µM |
| O=C(O)CN(c1ccccc1)S(=O)(=O)c1ccc(Cl)cc1 | inactive: > 100 µM |
| N#CC(C(=O)C(=O)Nc1ccccc1)c1ccccc1 (configuration not stated) | inactive: > 100 µM |
| CN1C=C(C(N)=O)Cc2ccsc21 | inactive: > 100 µM |
| CCC(C)(C)c1ccc(OCCCCNC(=O)c2ccc3ccccc3c2O)c(C(C)(C)CC)c1 | inactive: 35.5 µM |

| SMILES | GI50 |
| --- | --- |
| Oc1ccccc1-c1nnc(S)n1/N=C/c1ccc(-c2ccc(Br)cc2)o1 | inactive: 34.7 µM |
| COc1cc(S(=O)(=O)Nc2ccc(-c3csc(N4C(=O)CSC4c4cccs4)n3)cc2)ccc1Cl (configuration not stated) | inactive: 42.2 µM |
| CCCCCCCc1c(Cl)nc(Cl)nc1Cl | inactive: 7.76 µM |
| CC(C)CC1[C@@H](OCc2ccccc2)COS(=O)N1Cc1ccccc1 (some centres not stated) | inactive: 91.6 µM |
| C/C=C1/CC(C)C(C)(O)C(=O)OCC2C(O)CN3CCC(OC1=O)C23 (configuration not stated) | inactive: > 100 µM |
| CCN(CCCl)c1cc(CN(C)C)cc(NC(=O)c2ccc(C(=O)Nc3cccc(CN(C)C)c3)cc2)c1 | active: 0.771 µM |
| CC(=O)O[C@H]1C(=O)[C@@]2(C)C([C@H](OC(=O)c3ccccc3)[C@]3(O)C[C@H](OC(=O)[C@H](O)[C@H](NC(=O)c4ccccc4)c4ccc(Cl)cc4)C(C)=C1C3(C)C)C1(OC(C)=O)CO[C@@H]1C[C@@H]2O (some centres not stated) | active: 0.0059 µM |
| C#CCCCC(=C)C[C@@H]1OC(=O)[C@H](C)[C@@H]1O | inactive: > 100 µM |
| COc1ccc(NC(=O)CSc2nc(C)nc3c2sc(=S)n3-c2ccccc2)cc1 | inactive: 7.96 µM |
| CN[C@H]1CC[C@]23C[C@]24CC[C@]2(C)[C@@H]([C@H](C)N(C)C)CC[C@@]2(C)[C@@H]4CC[C@H]3C1(C)C | inactive: 16.1 µM |
| Cc1cc(C2CCCCC2)n(O)c(=O)c1 [CICLOPIROX OLAMINE] | inactive: 9.12 µM |
| C=C(C)C1CC=C(C)C2(C1)OCC(C)(C)C(C)O2 (configuration not stated) | inactive: 23.6 µM |
| CC(C)CC(NC(=O)C(COc1ccc([N+](=O)[O-])cc1)Cc1ccccc1)C(=O)Nc1ccccc1 (configuration not stated) | inactive: > 100 µM |
| CC1(C)N=C2C(=O)c3c([nH]c4ccccc34)[C@]3(C)CCC1CC23 (some centres not stated) | inactive: > 6.25 µM |
| N#CC1(C#N)C2C=CC(C3CC=CC32)C1(C#N)C#N (configuration not stated) | inactive: > 10 µM |
| COc1ccc(NC(=O)CC(=O)N2N=C(N3CCCCC3)CC2c2ccccc2)cc1 (configuration not stated) | inactive: > 100 µM |
| Cc1c(-c2ccccc2)oc(=O)c2ccccc12 | inactive: 25.4 µM |
| COc1ccc2nc3ccccc3c(NCCN(C)CCCl)c2c1 | active: 0.791 µM |
| CO/N=C(/C(=O)N(C(=O)/C(=N/OC)c1csc(NC(c2ccccc2)(c2ccccc2)c2ccccc2)n1)n1cnn(CC(=O)OC(C)(C)C)c1=O)c1csc(NC(c2ccccc2)(c2ccccc2)c2ccccc2)n1 | inactive: > 10 µM |
| O=C(O)CCC(=O)Nc1ccc2c(c1)S(=O)(=O)N(CC(=O)O)C2=O | inactive: > 100 µM |
| CC1(C)OC(=O)C(C#N)=C1C[n+]1ccccc1 | inactive: > 10 µM |
| COc1ccc(C(OCC2OC3(COC(c4ccccc4)(c4ccc(OC)cc4)c4ccc(OC)cc4)C(Oc4nc(=O)ccn43)C2O)(c2ccccc2)c2ccc(OC)cc2)cc1 (configuration not stated) | inactive: > 100 µM |

| SMILES | GI50 |
| --- | --- |
| C=C(CCOC)CCC1CCCCC(=C)C1=O (configuration not stated) | inactive: > 100 µM |
| NC(=O)NCCSC1CCCCC1O (configuration not stated) | inactive: > 100 µM |
| O=[N+]([O-])C(=C(Cl)Cl)C(Cl)=C(Cl)Cl | inactive: 4.7 µM |
| CCOC(=O)/C(=C\NC#N)c1nc2ccccc2[nH]1 | inactive: > 100 µM |
| Cc1ccc(S(=O)(=O)N2CCCSCCSCCCSCC2)cc1 | inactive: > 100 µM |
| O=C1C2Nc3ccccc3SC2C(=O)N1c1cccc([N+](=O)[O-])c1 (configuration not stated) | inactive: > 100 µM |
| CC(=O)[C@@]1(O)CC[C@H]2[C@@H]3C[C@H](C)C4=CC(=O)CC[C@]4(C)[C@H]3[C@@H](O)C[C@@]21C | inactive: > 100 µM |
| C[C@@H](C1CC[C@H]2[C@@H]3[C@@H]4O[C@@H]4[C@@]4(O)CC=CC(=O)[C@]4(C)[C@H]3C[C@H](O)[C@]12C)[C@H]1C[C@]2(C)O[C@]2(C)C(=O)O1 (some centres not stated) | inactive: > 100 µM |
| Cc1nc2ccccc2c(-n2cccn2)c1CCn1cccn1 | inactive: > 100 µM |
| C=C1C/C(=C/C)C(=O)O[C@@H]2CCN3CC=C(COC(=O)[C@]1(C)O)[C@H]23 [SENECIPHYLLINE] | inactive: > 100 µM |
| Cc1c(C(=O)/C=C/c2ccc(Cl)cc2)[n+]([O-])c2ccccc2[n+]1[O-] | inactive: 13.8 µM |
| C1=CC=C2NCCCCCCC/N=C3/C=CC=CC=C3NCCCCCCC/N=C\2C=C1 | inactive: > 100 µM |
| CCOC(=O)N1c2c(ccn2C)-c2ccn(C)c2N1C(=O)OCC | inactive: 20.6 µM |
| O=C1c2ccccc2C(=O)N1C1(C(=O)NC2(C(=O)O)CCCC2)CCCC1 | inactive: > 100 µM |
| CCc1c2c(cc3c1CC1(C3)Cc3cc4c(c(C(=O)OC)c3C1)CCCC4)CCCC2 (configuration not stated) | inactive: > 100 µM |
| COC(=O)[C@@]12OC[C@]34C([C@@H](O)C1O)[C@@]1(C)CC(=O)C(OC(=O)/C=C(/c5ccccc5)C(F)(F)F)=C(C)C1C[C@H]3OC(=O)[C@H](O)[C@H]42 (some centres not stated) | inactive: 29.9 µM |
| COC(=O)C(NC(=O)c1ccccc1)C(c1ccc(Cl)cc1)P(=O)(OC)OC (configuration not stated) | inactive: > 100 µM |
| Cc1c(C(=O)CC(=O)C(=O)NC2C3CC4CC(C3)CC2C4)[n+]([O-])c2ccccc2[n+]1[O-] (configuration not stated) | inactive: > 100 µM |
| CSC(=S)Nc1cc(C)cc(C)n1 | inactive: > 31.6 µM |
| CCn1c2nc(=O)n(CCCCCCCCSC(c3ccccc3)(c3ccccc3)c3ccccc3)c(=O)c-2nc2ccccc21 | inactive: 14.8 µM |
| Cc1c(N(C)C)ccc2c(=O)c3cccc(CC(=O)O)c3oc12 | inactive: > 100 µM |
